Source: PubChem BioAssay (Tox21)
The shares of active, inactive and inconclusive entries below differ from those in the screen. For part of these data: Potencies of inconclusive entries are left out as doubtful fits. Active and inactive are the calls of the source. Unless noted, calls come from the whole dose curve; as a rule, active = well fitted curve in the direction sought with a large enough effect in the repeat runs; inconclusive = weak or mixed curves; inactive = no such curve, though single readings can be large; an effect the other way counts as inactive or inconclusive.

Experiments:
[1] = qHTS assay to identify small molecule antagonists of the estrogen receptor alpha (ER-alpha) signaling pathway using the BG1 cell line - cell viability counter screen (AID 743081); details: BG1Luc4E2 viability, CellTiter-Fluor, 22 h; activity change, negative = cytotoxicity: at 70.3 µM (top of the series);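 note: compound given together with 17beta-estradiol as the ER stimulus; nearly all actives have a fitted effect of over 45% in size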; note: potency is the fitted concentration of half-maximal effect; for activity change, negative = cytotoxicity: % is set by controls: 0 for no effect and ±100 for the full control effect
Aromatase (Homo sapiens) = Aromatase (Homo sapiens) (UniProt P11511); test: qHTS assay to identify aromatase inhibitors (AID 743083); details: MCF-7 aro ERE, testosterone-driven ERE luciferase, 24 h; activity, negative = inhibition: at 70.3 µM (top of the series); note: nearly all actives have a fitted effect of over 55% in size; note: potency is the fitted concentration of half-maximal effect; for activity, negative = inhibition: % is set by controls: 0 for no effect and ±100 for the full control effect
[2] = target: Peroxisome proliferator-activated receptor gamma (Homo sapiens) (UniProt P37231); test: qHTS assay to identify small molecule antagonists of the peroxisome proliferator-activated receptor gamma (PPARg) signaling pathway (AID 743191; calls by dose curve; for all read-outs here: % is set by controls: 0 for no effect and ±100 for the full control effect; nearly all actives have a fitted effect of over 30% in size); details: HEK293H PPARg-UAS-bla, beta-lactamase ratio, antagonist, 17 h; for Potency: ratio activity, negative = inhibition: at 62.6 µM (top of the series) unless noted
Method in brief: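 GeneBLAzer PPARg UAS-bla HEK293H cells, 5 h post-plating, exposed to compounds 17 h at 37C. LiveBLAzer B/G FRET substrate added for 1 h at room temperature; beta-lactamase reporter read by fluorescence intensity.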

[3] = target: Peroxisome proliferator-activated receptor gamma (Homo sapiens) (UniProt P37231); test: qHTS assay to identify small molecule agonists of the peroxisome proliferator-activated receptor gamma (PPARg) signaling pathway (AID 743094; active = well fitted activation curve with a large enough effect in the signal ratio in the repeat runs, not every such curve was filed as active; inconclusive = weak or mixed curves, or effect the other way; inactive = no such curve, though single readings can be large or run the other way; the % refers to the signal ratio; note: % is set by controls: 0 for no effect and ±100 for the full control effect); details: HEK293H PPARg-UAS-bla, beta-lactamase FRET ratio, 17 h; activation: at 57 µM (top of the series) unless noted
Method in brief: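 Compounds dissolved in DMSO were added to PPARg UAS-bla HEK293H cells for 17 h at 37C, and reporter expression was quantified by fluorescence intensity after 1 h with LiveBLAzer B/G FRET substrate.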

[4] = target: Aryl hydrocarbon receptor (Homo sapiens) (UniProt P35869); test: qHTS assay to identify small molecule that activate the aryl hydrocarbon receptor (AhR) signaling pathway (AID 743085); note: nearly all actives have a fitted effect of over 15% in size; note: potency is the fitted concentration of half-maximal effect;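 for activation: HG2L7.5c1 human HepG2 liver cells with stably integrated DRE-driven firefly reporter; % is set by controls: 0 for no effect and ±100 for the full control effect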
Method in brief: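 Reporter assay in engineered HepG2 line HG2L7.5c1, whose plasmid carries twenty dioxin responsive elements upstream of firefly luciferase. Treatment lasted 24 h at 37C; ONE-Glo luminescence gauged induction.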

[5] = qHTS assay to identify small molecule that activate the aryl hydrocarbon receptor (AhR) signaling pathway - cell viability counter screen (AID 743086); note: potency is the fitted concentration of half-maximal effect; nearly all actives have a fitted effect of over 45% in size
Method in brief: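 HepG2-AhR-luc (HG2L7.5c1) cells, 4000/well, treated 24 h at 37 C with compound; viability measured as CellTiter-Fluor fluorescence after 30 min in the same wells as the luciferase read.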

[6] = qHTS assay to identify aromatase inhibitors - cell viability counter screen (AID 743084); details: MCF-7 aro ERE viability, CellTiter-Fluor, 24 h; activity change, negative = cytotoxicity: at 70.3 µM (top of the series);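 note: cells stimulated with testosterone during compound exposure; potency is the fitted concentration of half-maximal effect; nearly all actives have a fitted effect of over 55% in size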
Tags give direction and shape of the fitted curve.

UniProt P37231, sequence (P37231 whole entry, looked up): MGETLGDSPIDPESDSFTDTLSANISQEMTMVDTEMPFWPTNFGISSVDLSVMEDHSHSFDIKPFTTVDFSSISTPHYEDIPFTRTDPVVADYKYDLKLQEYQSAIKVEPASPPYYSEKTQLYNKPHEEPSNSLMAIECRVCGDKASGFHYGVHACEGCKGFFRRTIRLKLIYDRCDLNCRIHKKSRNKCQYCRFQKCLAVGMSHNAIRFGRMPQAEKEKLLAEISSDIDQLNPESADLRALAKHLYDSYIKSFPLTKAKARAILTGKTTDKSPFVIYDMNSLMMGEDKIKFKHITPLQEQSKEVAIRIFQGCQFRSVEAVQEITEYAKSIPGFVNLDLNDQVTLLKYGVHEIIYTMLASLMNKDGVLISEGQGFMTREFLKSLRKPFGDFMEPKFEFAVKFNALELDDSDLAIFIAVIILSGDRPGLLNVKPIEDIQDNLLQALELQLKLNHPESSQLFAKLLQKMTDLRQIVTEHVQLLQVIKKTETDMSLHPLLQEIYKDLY
UniProt P35869, sequence (P35869 whole entry, looked up): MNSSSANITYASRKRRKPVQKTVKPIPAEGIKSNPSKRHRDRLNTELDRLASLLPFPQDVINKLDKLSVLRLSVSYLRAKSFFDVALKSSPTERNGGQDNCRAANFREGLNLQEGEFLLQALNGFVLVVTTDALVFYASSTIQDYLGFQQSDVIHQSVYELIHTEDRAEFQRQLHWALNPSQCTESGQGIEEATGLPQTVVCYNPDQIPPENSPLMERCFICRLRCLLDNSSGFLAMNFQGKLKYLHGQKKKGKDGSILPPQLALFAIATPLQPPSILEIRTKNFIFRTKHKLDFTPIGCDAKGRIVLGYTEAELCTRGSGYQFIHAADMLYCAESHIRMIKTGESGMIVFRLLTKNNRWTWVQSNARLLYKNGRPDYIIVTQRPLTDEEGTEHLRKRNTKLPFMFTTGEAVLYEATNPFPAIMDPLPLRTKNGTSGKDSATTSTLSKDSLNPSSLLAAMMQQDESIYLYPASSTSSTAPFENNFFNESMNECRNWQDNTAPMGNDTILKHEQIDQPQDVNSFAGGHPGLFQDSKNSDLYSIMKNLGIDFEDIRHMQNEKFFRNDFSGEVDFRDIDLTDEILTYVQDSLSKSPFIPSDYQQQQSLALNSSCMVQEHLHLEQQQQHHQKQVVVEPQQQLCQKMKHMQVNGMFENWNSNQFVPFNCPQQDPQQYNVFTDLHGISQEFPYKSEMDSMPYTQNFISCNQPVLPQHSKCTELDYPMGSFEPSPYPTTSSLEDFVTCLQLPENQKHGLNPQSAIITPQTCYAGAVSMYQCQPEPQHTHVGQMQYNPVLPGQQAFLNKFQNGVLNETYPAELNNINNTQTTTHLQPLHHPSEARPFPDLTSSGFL
UniProt P11511, sequence (P11511 whole entry, looked up): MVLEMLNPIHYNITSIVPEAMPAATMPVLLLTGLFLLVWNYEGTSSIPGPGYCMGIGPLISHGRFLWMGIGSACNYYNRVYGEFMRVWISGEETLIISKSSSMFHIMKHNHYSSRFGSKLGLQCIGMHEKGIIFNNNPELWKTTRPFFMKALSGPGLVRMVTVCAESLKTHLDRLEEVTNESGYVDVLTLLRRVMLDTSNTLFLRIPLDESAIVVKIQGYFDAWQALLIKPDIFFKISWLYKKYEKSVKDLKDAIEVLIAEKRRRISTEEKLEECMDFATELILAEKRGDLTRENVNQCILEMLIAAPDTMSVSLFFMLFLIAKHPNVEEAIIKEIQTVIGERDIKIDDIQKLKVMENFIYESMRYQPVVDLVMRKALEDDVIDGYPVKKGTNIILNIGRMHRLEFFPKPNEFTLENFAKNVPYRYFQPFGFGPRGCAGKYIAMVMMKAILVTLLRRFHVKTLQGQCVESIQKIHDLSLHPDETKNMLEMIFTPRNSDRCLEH

Question: With `O=C(O)c1cc(O)c(O)c(O)c1` as the compound, how does the Potency [1] read?
Answer: inconclusive [cytotoxic, partial curve]

Question: And the Potency (Aromatase (Homo sapiens))?
Answer: inconclusive [inhibitor]

Question: What about the ratio activity, negative = inhibition ([2]; at 62.6 µM (top of the series)) of the same compound?
Answer: inconclusive: -10.1%

Question: And the ratio activity, negative = inhibition ([2]; at 81.1 µM (top of the series))?
Answer: inconclusive: -21.3%

Question: With `Cc1ncc([N+](=O)[O-])n1CC(C)O` (centres undefined) as the compound, how does the Potency [1] read?
Answer: inactive

Question: And the Potency (Aromatase (Homo sapiens))?
Answer: inactive

Question: What about the Potency [3] of the same compound?
Answer: inactive

Question: What about the Potency [2] of the same compound?
Answer: inactive

Question: What does the source list for `COc1cc2c(N3CCN(C(=O)Nc4ccc(OC(C)C)cc4)CC3)ncnc2cc1OCCCN1CCCCC1`?
Answer: Potency [1]: inconclusive [cytotoxic, partial curve]; Potency [4]: inconclusive [activator, full curve, poor fit]; Potency [5]: active: 23.7 µM

Question: With `CC1=NN(c2cc(S(=O)(=O)O)ccc2Cl)C(=O)C1N=Nc1ccccc1` (centres undefined) as the compound, how does the Potency [1] read?
Answer: inconclusive [cytotoxic, partial curve]

Question: What about the Potency [6] of the same compound?
Answer: inconclusive [cytotoxic, partial curve]

Question: And the Potency [5]?
Answer: inconclusive [falling, partial curve]

Question: And the Potency [2]?
Answer: inactive

Question: Which results are given for `C=CCNC(N)=S`?
Answer: Potency [1]: inactive; Potency [4]: inconclusive [activator, partial curve, poor fit]; Potency [2]: inactive

Question: With `CC(C)(C)C(=O)Oc1ccc(S(=O)(=O)Nc2ccccc2C(=O)NCC(=O)O)cc1` as the compound, how does the Potency [1] read?
Answer: inconclusive [rising, full curve, poor fit]

Question: Which Potency [1] does the source give for `CC(C)=CCC/C(C)=C\C#N` here?
Answer: inactive

Question: For `O=[N+]([O-])c1ccc(NCCO)c(OCCO)c1`, which Potency [1] is on record?
Answer: active: 68.7 µM

Question: What about the Potency [6] of the same compound?
Answer: inconclusive [cytotoxic, partial curve]

Question: What about the Potency [4] of the same compound?
Answer: inactive

Question: And the Potency [5]?
Answer: inconclusive [falling, partial curve]
